Single values of this set are uncertain.
experiment: amyloid nucleation score relative to library mode (yeast Sup35 reporter selection) (log enrichment difference); higher = more amyloid nucleation; sequences are the first 22 residues of the Bri2 peptide extended by up to 12 random residues; details: random library (experiment): 1;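 active = nucleation score significantly above 0 at FDR 0.05; inactive = not significantly above 0 or absent from output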
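Also: [psi-pin-] Saccharomyces cerevisiae expressing SupN fusions, induced by 100 µM Cu2SO4, selected 7 d at 30 °C without adenine and uracil, scored by deep sequencing of output versus input.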

| Sequence | amyloid nucleation score |
| --- | --- |
| EASNCFAIRHFENKFAVETLICIKGSWK | 4.28 |
| EASNCFAIRHFENKFAVETLICIKS | inactive |
| EASNCFAIRHFENKFAVETLICIKVESGCMGSPG | 2.77 |
| EASNCFAIRHFENKFAVETLICIKVLREYTGGKS | inactive |
| EASNCFAIRHFENKFAVETLICIKWLSRTSLGIA | -0.0755 |
| EASNCFAIRHFENKFAVETLICILAWVGISSSQR | -0.203 |
| EASNCFAIRHFENKFAVETLICILCYKEHWNAAR | inactive |
| EASNCFAIRHFENKFAVETLICILDSQRWDGSIG | 4.94 |
| EASNCFAIRHFENKFAVETLICILEPWIRPKKIS | inactive |
| EASNCFAIRHFENKFAVETLICILGCCMSYAGLW | inactive |
| EASNCFAIRHFENKFAVETLICILHCAVVVGSDL | inactive |
| EASNCFAIRHFENKFAVETLICILHHNLSGSSLR | 0.655 |
| EASNCFAIRHFENKFAVETLICILLGSRSRSVGL | -0.187 |
| EASNCFAIRHFENKFAVETLICILPNCASGVRWT | 7.31 |
| EASNCFAIRHFENKFAVETLICILQLNRTVSGRT | inactive |
| EASNCFAIRHFENKFAVETLICILSVMNLFHVF | inactive |

| Sequence | amyloid nucleation score |
| --- | --- |
| EASNCFAIRHFENKFAVETLICILTPFVSSILIR | 0.796 |
| EASNCFAIRHFENKFAVETLICILTPTLCGSRTW | 1.83 |
| EASNCFAIRHFENKFAVETLICIMCTII | 8.21 |
| EASNCFAIRHFENKFAVETLICIMILGKHGMGHR | inactive |
| EASNCFAIRHFENKFAVETLICIMLGPGWTSWCK | inactive |
| EASNCFAIRHFENKFAVETLICIMLHIRTGGCQW | inactive |
| EASNCFAIRHFENKFAVETLICIMVCFILMHHHA | inactive |
| EASNCFAIRHFENKFAVETLICIMVNWFRFLHAE | inactive |
| EASNCFAIRHFENKFAVETLICINHHHFRRLRCG | 1.38 |
| EASNCFAIRHFENKFAVETLICINLMNKRIFVLK | -0.0846 |
| EASNCFAIRHFENKFAVETLICINMSIIAVSWML | 0.498 |
| EASNCFAIRHFENKFAVETLICINR | 4.88 |
| EASNCFAIRHFENKFAVETLICIP | inactive |
| EASNCFAIRHFENKFAVETLICIPCFALEVVHNG | 6.63 |
| EASNCFAIRHFENKFAVETLICIPGSWESLGSWP | 3.61 |
| EASNCFAIRHFENKFAVETLICIPHPRCTCHVLR | inactive |

same assay, conditions: random library (experiment): 2

| Sequence | amyloid nucleation score |
| --- | --- |
| EASNCFAIRHFENKFAVETLICIKGTGTWVSFL | 4.21 |
| EASNCFAIRHFENKFAVETLICIKGYGFTVTS | -0.358 |
| EASNCFAIRHFENKFAVETLICIKKVWDHGVVTG | inactive |
| EASNCFAIRHFENKFAVETLICIKLSGMLRVYVG | inactive |
| EASNCFAIRHFENKFAVETLICIKNRGDV | 1.89 |
| EASNCFAIRHFENKFAVETLICIKQSSGVVGTRL | inactive |
| EASNCFAIRHFENKFAVETLICIKVGMCRAYAGL | 2.94 |
| EASNCFAIRHFENKFAVETLICIKVWFLRIGLGS | inactive |
| EASNCFAIRHFENKFAVETLICIKWVYKLNNVWG | 0.533 |
| EASNCFAIRHFENKFAVETLICIL | 5.67 |
| EASNCFAIRHFENKFAVETLICILANHNSFHSLR | 0.288 |
| EASNCFAIRHFENKFAVETLICILARQQSYDVLN | inactive |
| EASNCFAIRHFENKFAVETLICILCHWYNWFYTS | inactive |
| EASNCFAIRHFENKFAVETLICILCIGMSIGTSL | inactive |
| EASNCFAIRHFENKFAVETLICILHVGQVCLRWT | -0.0392 |
| EASNCFAIRHFENKFAVETLICILISCVFTYNAG | inactive |
| EASNCFAIRHFENKFAVETLICILK | 3.68 |
| EASNCFAIRHFENKFAVETLICILKLSSPACAC | inactive |
| EASNCFAIRHFENKFAVETLICILLFGHVIMESR | inactive |
| EASNCFAIRHFENKFAVETLICILLRIS | inactive |
| EASNCFAIRHFENKFAVETLICILLSCYQHVS | inactive |
| EASNCFAIRHFENKFAVETLICILLTLWRVGSEG | inactive |
| EASNCFAIRHFENKFAVETLICILLYGSMCLPHR | inactive |
| EASNCFAIRHFENKFAVETLICILMVHLPNCMES | inactive |
| EASNCFAIRHFENKFAVETLICILNIAAVPSVLK | inactive |
| EASNCFAIRHFENKFAVETLICILNRIQWGNLVG | -0.399 |
| EASNCFAIRHFENKFAVETLICILPCLASLQIRV | inactive |
